{"source": "PubChem BioAssay AID2675", "about": "(National Center for Advancing Translational Sciences (NCATS), 2010)", "note": "The whole screen tested about 280,000 compounds, of which about 100 (0.036%) were called active. The inconclusive results got no clear call from the source; some entries with a clear call stand among them for comparison. Calls come from the whole dose curve; as a rule, active = well fitted inhibition curve with a large enough effect in the signal ratio, with a control signal flat (not every such curve was filed as active); inconclusive = small, poorly fitted or top-dose-only effect, or effect the other way, or a change in a side signal; inactive = no such curve, though single readings can be large or run the other way; the % refers to the signal ratio. Where the call is inconclusive, the potency comes from a doubtful curve fit. A note “side channel” means that the fit belongs to a control or component signal, not to the main read-out. % is set by controls: 0 for no effect and ±100 for the full control effect; potency is the fitted concentration of half-maximal effect; tags give direction and shape of the fitted curve or compound fluorescence and quenching.", "data": [{"molecular_target": "Muscleblind-like protein 1 (Homo sapiens) (UniProt Q9NR56)", "sequence (Q9NR56 whole entry, looked up)": "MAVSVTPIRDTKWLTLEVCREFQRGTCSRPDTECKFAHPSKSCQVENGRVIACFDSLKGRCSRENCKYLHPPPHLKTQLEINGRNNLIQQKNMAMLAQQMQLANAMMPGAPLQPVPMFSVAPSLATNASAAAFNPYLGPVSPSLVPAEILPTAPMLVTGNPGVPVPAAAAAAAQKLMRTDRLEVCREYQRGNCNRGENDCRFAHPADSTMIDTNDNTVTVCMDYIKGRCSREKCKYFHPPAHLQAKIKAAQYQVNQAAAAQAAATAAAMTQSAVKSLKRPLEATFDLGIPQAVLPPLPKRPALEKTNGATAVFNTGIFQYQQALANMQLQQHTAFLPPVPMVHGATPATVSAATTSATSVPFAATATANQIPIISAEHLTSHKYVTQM", "experiment": "qHTS Assay for Inhibitors of MBNL1-poly(CUG) RNA binding", "settings": "TR-FRET MBNL1-His/biotin-(CUG)12 binding, 665/545 ratio; activity change, negative = inhibition: at 57.5 µM (top of the series)", "outline": "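Ratiometric TR-FRET (665 over 545 nm, excitation 340 nm) tracks disruption of MBNL1-His/biotin-(CUG)12 complex after 60 min at room temperature, with compounds at 92 nM to 58 uM final.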", "values": [{"smiles": "CC(C)(C)c1cc(C(=O)Nc2ccc(F)cc2)n(Cc2ccc(F)cc2)n1", "activity change, negative = inhibition": "inactive: 3.09%"}, {"smiles": "COC(=O)N/N=C1/C/C(=N\\NC(=O)OC)c2ccccc21", "Potency": "inconclusive: 10 µM [quencher, side channel, partial curve]"}, {"smiles": "CCCc1cc(C(=O)Nc2ccccc2C(=O)OC)no1", "Potency": "inconclusive: 35.5 µM [quencher, side channel, single point]"}, {"smiles": "O=C(CSCc1cccc(Br)c1)N=Nc1c(O)[nH]c2ccccc12", "Potency": "inconclusive: 25.1 µM [quencher, side channel, partial curve]"}, {"smiles": "Cn1c(=O)[nH]c2ccc([N+](=O)[O-])nc21", "Potency": "inconclusive: 10 µM [quencher, side channel, partial curve]"}, {"smiles": "COc1ccc(NC(=O)c2sccc2C)c([N+](=O)[O-])c1", "Potency": "inconclusive: 6.31 µM [quencher, side channel, partial curve]"}, {"smiles": "Cc1ccc(Cl)cc1N1CCN(Cc2nc3c(c(=O)[nH]c(=O)n3C)n2Cc2ccccc2F)CC1", "activity change, negative = inhibition": "inactive: 3.4%"}, {"smiles": "C=C(C)Cn1c(NCCOC)nc2c1c(=O)[nH]c(=O)n2C", "activity change, negative = inhibition": "inactive: -4.89%"}, {"smiles": "O=C(O)c1ccc(N/N=C/c2cc(Br)cs2)cc1", "Potency": "inconclusive: 31.6 µM [quencher, side channel, single point]"}, {"smiles": "O=C(N/N=C/C(Br)=C/c1ccccc1)c1ccccc1F", "Potency": "inconclusive: 25.1 µM [quencher, side channel, partial curve]"}, {"smiles": "CN1C(=O)/C(=C/c2cn(CC(=O)N3CCCCC3)c3ccccc23)c2ccccc21", "Potency": "inconclusive: 25.1 µM [quencher, side channel, partial curve]"}, {"smiles": "Cc1nnc(NC(=O)c2cccc(S(=O)(=O)N3CCc4ccccc43)c2)s1", "activity change, negative = inhibition": "inactive: -4.15%"}, {"smiles": "O=C(CSCc1ccccc1)Nc1ccc2c(c1)C(=O)NC2=O", "Potency": "inconclusive: 28.2 µM [quencher, side channel, single point]"}, {"smiles": "Cc1sc2nc3ccc(N4CCCCC4)nn3c(=O)c2c1C", "Potency": "inconclusive: 8.91 µM [quencher, side channel, full curve, poor fit]"}, {"smiles": "CN1c2ccc([N+](=O)[O-])cc2N(C)C1(C)c1ccccc1", "note": "(centres undefined)", "Potency": "inconclusive: 10 µM [quencher, side channel, partial curve]"}, {"smiles": "O=C(CSc1ccc([N+](=O)[O-])cc1)NCC1CCCCC1", "Potency": "inconclusive: 15.8 µM [quencher, side channel, partial curve]"}, {"smiles": "Cc1cc(NS(=O)(=O)c2ccc(NC(=O)COc3ccccc3[N+](=O)[O-])cc2)no1", "Potency": "inconclusive: 15.8 µM [quencher, side channel, partial curve]"}, {"smiles": "Cc1ccc(S(=O)(=O)c2nnn3c2nc(Nc2cccc(C)c2)c2ccccc23)cc1", "activity change, negative = inhibition": "inactive: -1.27%"}, {"smiles": "CCOC(=O)C1CCCN(C(=O)c2ccc3nc(-c4ccccc4)c(-c4ccccc4)nc3c2)C1", "note": "(centres undefined)", "activity change, negative = inhibition": "inactive: 24.3%"}, {"smiles": "CC1=NN(/C(=N\\c2nnc(C)s2)Nc2ccc(C(C)(C)C)cc2)[C@H](c2ccc(C)cc2)S1", "Potency": "inconclusive: 4.47 µM [quencher, side channel, full curve, poor fit]"}, {"smiles": "Nc1ccc(C(=O)OCCCc2nc3cc4ccccc4cc3[nH]2)cc1", "Potency": "inconclusive: 17.8 µM [quencher, side channel, single point]"}, {"smiles": "CC(C)(C)C(=O)/C(=C\\c1ccc([N+](=O)[O-])cc1)n1cncn1", "Potency": "inconclusive: 5.01 µM [quencher, side channel, full curve, poor fit]"}, {"smiles": "CC(=O)N(C(C)=O)N1C(=O)c2cccc3c(N4CCOCC4)ccc(c23)C1=O", "Potency": "inconclusive: 3.55 µM [quencher, full curve, poor fit]"}, {"smiles": "c1cncc(-c2nc(-c3ccc4c(c3)OCO4)cs2)c1", "Potency": "inconclusive: 17.8 µM [quencher, partial curve]"}, {"smiles": "CC(C)(O)C#Cc1ccc(C(=O)NC2CCCCC2)s1", "activity change, negative = inhibition": "inactive: 2.42%"}, {"smiles": "Cc1cc(/C(=N/O)C(C)(C)NO)ccc1Cl", "Potency": "inconclusive: 8.91 µM [quencher, side channel, full curve, poor fit]"}, {"smiles": "S=C(NCc1ccco1)N1CCN(Cc2ccco2)CC1", "activity change, negative = inhibition": "inactive: -14.9%"}, {"smiles": "Cc1ccc(OCc2ccc(C(=O)O)o2)c([N+](=O)[O-])c1", "Potency": "inconclusive: 2.82 µM [quencher, side channel, single point]"}, {"smiles": "COc1cc2oc3ccccc3c2cc1N(CC(=O)N(C)C)S(=O)(=O)c1ccccc1", "activity change, negative = inhibition": "inactive: -7.82%"}, {"smiles": "O=C(c1ccc(N2CN(C(=O)c3ccco3)c3nc4ccccc4nc32)cc1)N1CCOCC1", "Potency": "inconclusive: 2.51 µM [quencher, side channel, full curve]"}, {"smiles": "Cc1ccc(COc2ccc(C)nc2[N+](=O)[O-])cc1", "Potency": "inconclusive: 28.2 µM [quencher, side channel, partial curve]"}, {"smiles": "O=[N+]([O-])c1cccc(Cl)c1NCCNS(=O)(=O)c1ccccc1", "Potency": "inconclusive: 17.8 µM [quencher, side channel, partial curve]"}, {"smiles": "CCn1c(O)c(N=NC(=O)CNc2ccc(C)cc2)c2ccccc21", "Potency": "inconclusive: 31.6 µM [quencher, side channel, single point]"}, {"smiles": "COc1ccc(-n2nc(C(=O)NCC(=O)NCCc3ccc(OC)c(OC)c3)c3ccccc3c2=O)cc1Cl", "Potency": "inconclusive: 14.1 µM [quencher, side channel, partial curve]"}, {"smiles": "CCCC(=O)N1c2ccc(-c3csc(N)n3)cc2CC1C", "note": "(centres undefined)", "Potency": "inconclusive: 25.1 µM [quencher, side channel, partial curve, poor fit]"}, {"smiles": "CN1OC2C(=O)N(c3ccccc3)C(=O)C2C1c1ccc(F)cc1", "note": "(centres undefined)", "activity change, negative = inhibition": "inactive: 5.08%"}, {"smiles": "Cc1c(Br)c([N+](=O)[O-])nn1CC(=O)NCc1cccs1", "Potency": "inconclusive: 31.6 µM [quencher, side channel, partial curve]"}, {"smiles": "c1ccc2c(c1)OCC(c1csc3ncnc(N4CCCC4)c13)O2", "note": "(centres undefined)", "activity change, negative = inhibition": "inactive: -1.1%"}, {"smiles": "COc1c([N+](=O)[O-])cc(C(=O)NNC(=O)c2ccc(C)cc2)cc1[N+](=O)[O-]", "Potency": "inconclusive: 15.8 µM [quencher, partial curve]"}]}]}
